The other results are listed elsewhere or left out.
Columns and labels:
[1] = system: HSkMC (human skeletal muscle cells); experiment: cytotoxicity call (relative viability < 0.9); conditions: 10 µM
[2] = system: HepG2; experiment: cytotoxicity call (relative viability < 0.9); conditions: 10 µM
[3] = system: S. aureus RN4220; experiment: growth inhibition call (relative growth <= 0.2); conditions: 50 µM

Structure (SMILES) | cytotoxicity call [1] | cytotoxicity call [2] | growth inhibition call [3]
COc1ccccc1CNC(=O)C[C@H]1C[C@H]2c3cc(NC(=O)c4cccnc4)ccc3O[C@H]2[C@H](CO)O1 | inactive | inactive | inactive
CCOC(=O)N1c2ccc(C(F)(F)F)cc2[C@@H](N(Cc2cc(C(F)(F)F)cc(C(F)(F)F)c2)C(=O)OC)C[C@H]1CC | inactive | inactive | inactive
COCC#Cc1cnc2c(c1)C(=O)N([C@H](C)CO)C[C@@H](C)[C@@H](CN(C)C(=O)CN1CCOCC1)O2 | inactive | inactive | inactive
C[C@@H]1CN([C@H](C)CO)C(=O)c2cc(NS(=O)(=O)c3ccccc3)ccc2O[C@@H]1CN(C)Cc1ccc(Oc2ccccc2)cc1 | active | active | inactive
COc1ccc(S(=O)(=O)N(C)C[C@H]2Oc3ccc(NS(=O)(=O)c4c(C)noc4C)cc3CC(=O)N([C@H](C)CO)C[C@H]2C)cc1 | inactive | inactive | inactive
C[C@@H]1CN([C@H](C)CO)C(=O)c2cccc(NC(=O)c3ccc(-c4nccs4)cc3)c2O[C@@H]1CN(C)Cc1ccc(C(F)(F)F)cc1 | inactive | active | inactive
COCc1cn([C@H]2C[C@H](O)[C@@H](CO)O2)c(=O)[nH]c1=O | inactive | inactive | inactive
O=C(C[C@H]1CC[C@@H]2[C@H](COC[C@H](O)CN2S(=O)(=O)c2ccccc2)O1)NCc1ccc2c(c1)OCO2 | inactive | inactive | inactive
C[C@H]1CCCCO[C@@H](CN(C)CC2CC2)[C@@H](C)CN([C@@H](C)CO)C(=O)c2cc(NC(=O)c3ccccc3)ccc2O1 | inactive | inactive | inactive
C[C@@H]1CN([C@@H](C)CO)C(=O)c2cc(NC(=O)C3CCCCC3)ccc2O[C@H]1CN(C)Cc1ccc(C(F)(F)F)cc1 | inactive | inactive | inactive
Cc1nc(=O)c(C#N)c(NCc2cccnc2)[nH]1 | inactive | inactive | inactive
CSc1nc(=O)c(CCO)c(C)[nH]1 | inactive | inactive | inactive
CC(C)NC(=O)Nc1ccc2c(c1)C(=O)N([C@@H](C)CO)C[C@@H](C)[C@@H](CN(C)C(=O)Nc1ccc(F)cc1)OCCCC[C@@H](C)O2 | inactive | inactive | inactive
CN(C)CCCNC(=O)C[C@@H]1C=C[C@@H](NC(=O)Cc2cccnc2)[C@H](CO)O1 | inactive | inactive | inactive
Cc1noc(C)c1S(=O)(=O)Nc1ccc2c(c1)C(=O)N([C@@H](C)CO)C[C@H](C)[C@@H](CN(C)S(C)(=O)=O)O2 | inactive | inactive | inactive
C[C@@H]1CN([C@H](C)CO)C(=O)c2cc(NS(=O)(=O)c3ccccc3)ccc2O[C@@H]1CN(C)S(=O)(=O)c1cccs1 | inactive | inactive | inactive
CN1CCN(C(=O)C[C@H]2C[C@@H]3c4cc(NS(=O)(=O)c5ccc(F)cc5)ccc4O[C@@H]3[C@H](CO)O2)CC1 | inactive | inactive | inactive
CO[C@H]1CN(C)C(=O)c2ccc(NS(=O)(=O)c3ccccc3)cc2OC[C@H](C)N(C(=O)NC(C)C)C[C@H]1C | inactive | inactive | inactive
CCOC(=O)CCCCCC(=O)Nc1ccc2c(c1)C(=O)N([C@@H](C)CO)C[C@@H](C)[C@H](CN(C)S(=O)(=O)c1cccs1)OCCCC[C@H](C)O2 | inactive | inactive | inactive
COCCOC(=O)N1C(=O)[C@@]2(c3cc(C#Cc4ccc(OC)cc4)ccc31)[C@H](C(=O)N1CCN(c3ncccn3)CC1)[C@H]1C(=O)O[C@H](c3ccccc3)[C@H](c3ccccc3)N1[C@@H]2c1ccc(OCCO)cc1 | inactive | inactive | inactive
Cc1noc(C)c1NC(=O)N(C)C[C@@H]1OCCCC[C@@H](C)Oc2ccc(NC(=O)Nc3ccccc3)cc2C(=O)N([C@@H](C)CO)C[C@@H]1C | inactive | inactive | inactive
COc1ccc(S(=O)(=O)N2C[C@@H](O)COC[C@H]3O[C@H](CC(=O)N[C@H]4CCN(Cc5ccccc5)C4)CC[C@@H]32)cc1 | inactive | inactive | inactive
O=C(C[C@H]1CC[C@@H]2[C@H](COC[C@@H](O)CN2C(=O)c2cnccn2)O1)NCc1ccc(Oc2ccccc2)cc1 | inactive | inactive | inactive
O=C(C[C@H]1CC[C@@H]2[C@H](COC[C@H](O)CN2Cc2ccccc2F)O1)N[C@H]1CCN(Cc2ccccc2)C1 | inactive | inactive | inactive

Structure (SMILES) | cytotoxicity call [1] | cytotoxicity call [2] | growth inhibition call [3]
Cc1noc(C)c1S(=O)(=O)N(C)C[C@H]1Oc2ccc(NS(C)(=O)=O)cc2CC(=O)N([C@@H](C)CO)C[C@H]1C | inactive | inactive | inactive
CNC(=O)C(=O)Nc1cc(F)ccc1F | inactive | inactive | inactive
C[C@@H]1CN([C@@H](C)CO)C(=O)Cc2cc(NS(=O)(=O)c3ccc(Cl)cc3)ccc2O[C@H]1CN(C)Cc1ccc(-c2ccccc2)cc1 | active | active | inactive
C[C@H](CO)N1C[C@H](C)[C@H](CN(C)Cc2ccc(Cl)c(Cl)c2)OCCCC[C@H](C)Oc2ccc(NC(=O)C3CCCCC3)cc2C1=O | inactive | inactive | inactive
COc1ccc(C#Cc2cnc3c(c2)C(=O)N([C@@H](C)CO)C[C@@H](C)[C@@H](CN(C)C(=O)CC2CC2)O3)cc1 | inactive | inactive | inactive
COCc1n[nH]c(C)c1C(=O)O | inactive | inactive | inactive
Cc1noc(C)c1NC(=O)N(C)C[C@@H]1Oc2c(NC(=O)Nc3ccc(C(F)(F)F)cc3)cccc2C(=O)N([C@@H](C)CO)C[C@@H]1C | inactive | inactive | inactive
COc1ccc(S(=O)(=O)N(C)C[C@H]2Oc3ccc(NC(=O)Cn4cnnn4)cc3CC(=O)N([C@@H](C)CO)C[C@H]2C)cc1 | inactive | inactive | inactive
CCOC(=O)N(C)C[C@@H]1OCc2cn(nn2)CCCC(=O)N([C@H](C)CO)C[C@@H]1C | inactive | inactive | inactive
CO[C@H]1CN(C)C(=O)c2cc(NC(=O)c3ccc(F)cc3)ccc2OC[C@H](C)N(C(=O)CN(C)C)C[C@@H]1C | inactive | inactive | inactive
C[C@H](CO)N1C[C@H](C)[C@@H](CN(C)S(=O)(=O)c2cccs2)OCCCC[C@H](C)Oc2ccc(NS(C)(=O)=O)cc2C1=O | inactive | inactive | inactive
O=C1CN(S(=O)(=O)Cc2ccccc2)C[C@H]2[C@H](c3ccc(C#Cc4cccc(F)c4)cc3)[C@@H](CO)N12 | inactive | active | inactive
NC(=O)c1cn(Cc2c(F)cccc2F)nn1 | inactive | inactive | inactive
C[C@H](CO)N1C[C@H](C)[C@H](CN(C)Cc2ccncc2)OCCCC[C@H](C)Oc2ccc(NC(=O)C3CCCCC3)cc2C1=O | inactive | inactive | inactive
NCc1cnc2ccccc2c1 | inactive | inactive | inactive
COc1ccc(C2=C(NC(=O)c3ccc(OC)cc3-c3cccc(OC)c3)C(=O)c3ccccc3C2=O)cc1 | inactive | active | inactive
N=C(N)/N=C(\N)N1CCOCC1 | inactive | inactive | inactive
C[C@@H]1CCCCO[C@@H](CN(C)C(=O)Nc2cccc3ccccc23)[C@@H](C)CN([C@H](C)CO)C(=O)c2cc(NS(=O)(=O)c3ccccc3)ccc2O1 | inactive | inactive | inactive
Cc1ccc(CSc2nnc(CCN)o2)cc1 | inactive | active | inactive
CO[C@H](CN(C)C(=O)Nc1ccc(C(F)(F)F)cc1)[C@H](C)CN(Cc1ccccc1Cl)[C@@H](C)CO | inactive | inactive | inactive
CCCC(=O)Nc1ccc2c(c1)C(=O)N(C)C[C@@H](OC)[C@H](C)CN(C(=O)Cc1ccccn1)[C@H](C)CO2 | inactive | inactive | inactive
CC(=O)O[C@H](C[C@H](O)C(C)(O)CCC=C(C)C)/C(C)=C/COC[C@@H](O)[C@@H](O)[C@@H](O)[C@@H](O)CO (some centres undefined) | inactive | inactive | inactive
O=C(C[C@H]1C[C@H]2c3cc(NS(=O)(=O)c4ccc(F)cc4)ccc3O[C@H]2[C@H](CO)O1)NC1CCCCC1 | inactive | inactive | inactive
Cn1cnc([N+](=O)[O-])c1Sc1[nH]cnc2ncnc1-2 | inactive | active | inactive

— the antibiotic and cytotoxicity screens of Wong et al. (2023)
